Reference: the supplement of paper PMC7826260
This is one part of the list. The data describe in vitro nicking of single-stranded DNA by Rep domains for 1 h at 37 °C with 3 µM enzyme; only the middle of the 90-letter strands is printed. Values are log2 of uncut reads against the no-enzyme pool; the lower, the more was cut; hits are not called. Shares of all reads are compared; uncut strands gain when others are lost, and binding without cutting may add a little.

Test system: T1, Rep nickase domain of tomato golden mosaic virus
T1 sequence (residues 1-124, tag not shown): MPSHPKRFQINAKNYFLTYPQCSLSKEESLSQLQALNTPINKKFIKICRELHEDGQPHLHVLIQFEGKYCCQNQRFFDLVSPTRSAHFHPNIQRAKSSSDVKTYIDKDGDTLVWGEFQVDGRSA
Assay: uncleaved DNA left, log2 of reads against the no-enzyme library (log2 ratio); higher = less cleavage (more negative = more Rep cleavage of the k-mer); sequences stand for … in CTCGTCCG…ACCGGAGA
Procedure: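 A pool of 90-nt single-stranded DNAs with seven random bases just before the constant AC of the nick site (name = the seven bases) was cut by 3 µM recombinant His6-SUMO-tagged Rep nickase domain (300 nM DNA, 50 mM HEPES pH 8.0, 50 mM NaCl, 1 mM MnCl2, 1 h, 37 °C, three replicates). Uncut DNA was amplified and sequenced.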

| Sequence | uncleaved DNA left (log2) |
| --- | --- |
| TGGTTCG | -0.224 |
| CAGAAAG | 0.126 |
| GTTTCTA | 0.126 |
| TCAAAGG | 0.133 |
| GTCTACT | 0.0245 |
| GCTGCTG | 0.0244 |
| TGAATTC | 0.0525 |
| ATGACTC | -0.199 |
| GCAAGAC | 0.0788 |
| ATGAAAC | -0.0279 |
| CAGGGAA | -0.0401 |
| TAGTTAA | 0.0876 |
| CTTACAT | 0.00323 |
| GGGGGCA | 0.0321 |
| GTTCTTG | 0.103 |
| AGTTGGC | 0.135 |
| GAAAGTG | 0.0741 |
| TGGAGTT | 0.0678 |
| AAAGGGA | 0.0524 |
| GTCACGG | 0.177 |

| Sequence | uncleaved DNA left (log2) |
| --- | --- |
| AGAACGA | 0.047 |
| TGTTGTT | -0.173 |
| TACATAC | -0.103 |
| GAGGCGT | 0.0238 |
| TTAGCTG | -0.0294 |
| CCCGTGA | 0.0328 |
| TACTAGA | 0.0544 |
| TCCCAGT | -0.0525 |
| TCATCTG | -0.0954 |
| CCGGGTG | 0.0958 |
| GTACCTC | -0.0284 |
| TGCCAAT | -0.17 |
| GCATGTG | -0.123 |
| ACGGAAT | 0.284 |
| GCATTCA | 0.147 |
| CGGCGGG | 0.0338 |
| GTGGCTC | 0.0476 |
| CTCGTGT | -0.0884 |
| TTACCCA | -0.0617 |
| GAGTAGC | -0.058 |
